# The whole screen tested about 48,000 compounds, of which about 1,200 (2.5%) were called active. Inconclusive results (about 2%) are left out.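 The calls were made as follows: active = activation of at least 60% and not above a set upper limit (about 1 call in 100 departs from these limits); inconclusive = activation of 40% to 60%, or above that upper limit; inactive = activation under 40%.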 Some of the results follow.
# Biological target: Probable G-protein coupled receptor 32 (Homo sapiens) (UniProt O75388)
# UniProt O75388, sequence (O75388 whole entry, looked up): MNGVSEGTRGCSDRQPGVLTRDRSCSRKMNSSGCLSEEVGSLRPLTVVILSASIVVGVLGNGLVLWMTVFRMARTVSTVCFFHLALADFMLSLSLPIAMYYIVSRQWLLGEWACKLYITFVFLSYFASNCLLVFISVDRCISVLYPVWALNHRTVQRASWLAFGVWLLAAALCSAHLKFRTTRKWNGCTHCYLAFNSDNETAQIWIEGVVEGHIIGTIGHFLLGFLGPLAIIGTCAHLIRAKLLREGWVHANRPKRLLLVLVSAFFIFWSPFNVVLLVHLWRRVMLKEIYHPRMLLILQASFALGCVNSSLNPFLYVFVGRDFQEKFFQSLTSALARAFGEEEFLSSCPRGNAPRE
# Experiment: qHTS for Agonists of Human Resolvin D1 Receptor DRV1; also: 0% is about no effect
# Details: CHO-K1 GPR32 beta-arrestin PathHunter luminescence, 90 min; at 76.9 µM; stronger effect = higher value; zero percent set by DMSO-only wells
# In short: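 Readings come from a cell-based beta-arrestin complementation format: CHO-K1 GPR32 stable cells (2,500/well) treated 90 min with compounds, then beta-Gal substrate added for 1 h before chemiluminescence imaging.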
row,SMILES,activation
1,COc1ccc(-c2cc(C(=O)NCc3ccc(F)cc3)no2)cc1,inactive: -0.3%
2,COc1ccc(C(=O)NCC(c2ccc(N(C)C)cc2)N2CCCC2)cc1 (stereo not drawn),inactive: -8.9%
3,CCC(C(=O)Nc1cc(OC)ccc1OC)n1c(=O)c(C(F)(F)F)nc2ccccc21 (stereo not drawn),inactive: -33.1%
4,O=C(CCCn1c(=O)c2ccccc2n(CC(=O)Nc2cccc(Cl)c2)c1=O)NCc1ccc2c(c1)OCO2,inactive: 16.2%
5,CCOc1ccc2oc(=O)cc(CN3CCN(Cc4ccc(F)cc4)CC3)c2c1,inactive: -13.9%
6,CCC(=O)N1CCc2cc(Br)cc(S(=O)(=O)CCC(=O)N3CCN(c4ccc(OC)cc4)CC3)c21,inactive: -2.33%
7,CC(C)c1ccc(Nc2ncnc3c2nc2n3CCCC2)cc1,inactive: 31.7%
8,COc1cc(NC(=O)CNC(=O)Cn2ccc3ccccc3c2=O)cc(OC)c1OC,inactive: 13.3%
9,CCC(=O)Nc1ccccc1-c1nc2ccccc2n(C(C)C(=O)Nc2cccc(Cl)c2C)c1=O (stereo not drawn),inactive: -21.2%
10,COc1cccc(CNC(=O)CSc2n[nH]c(-c3ccccc3Cl)n2)c1OC,inactive: 2.45%
11,CCOc1ccc(NC(C)=O)cc1,inactive: 0.176%
12,COc1cccc(C2=C(C(C)=O)Sc3nnc(C4CCCCC4)n3N2C(C)=O)c1,inactive: -45%
13,CCOc1ccccc1CNC(=O)c1cn(-c2ccc(OC)cc2)c(=O)c2ccccc12,inactive: -12.9%
14,CN1CCC[C@@H]1CCO[C@](C)(c1ccccc1)c1ccc(Cl)cc1,active: 68.2%
15,CCOc1ccc(NC(=O)[C@H]2O[C@@H]3OC(C)(C)O[C@@H]3[C@H]3OC(C)(C)O[C@H]32)cc1,inactive: 5.88%
16,Cc1cccc(NC(=O)CSc2nc(=O)n(Cc3ccco3)c3c2CCC3)c1C,inactive: -7.68%
17,CCc1nn(CC(=O)NCc2ccccc2Cl)c(=O)c2cc3ccccc3n12,inactive: -1.26%
18,Cc1cc(C)cc(NC(=O)C(=O)NCCCN2CCOCC2)c1,inactive: 0.295%
19,Cc1ccc2cc3cc(C(=O)N4CCN(c5ccccc5)CC4)oc3nc2c1,inactive: -15.5%
20,O=c1c(N2CCN(c3cccc(Cl)c3)CC2)csc2ccccc12,inactive: -63.3%
21,O=C(Nc1nc2ccc(S(=O)(=O)N3CCCC3)cc2s1)c1ccc(F)cc1,inactive: 9.84%
22,CCc1ccc(Oc2c(C(F)(F)F)oc3c(CN4CCN(CC)CC4)c(O)ccc3c2=O)cc1,inactive: 2.76%
23,CC1CCCCN1CCCNC(=O)c1ccc2c(c1)sc1nc(-c3ccc(F)cc3)cn12 (stereo not drawn),inactive: 9.67%
24,CCOc1ccc(CN(C(=O)c2nc(SC)ncc2Cl)C2CCS(=O)(=O)C2)cc1 (stereo not drawn),inactive: -0.173%
25,CCOC(=O)c1noc2ncnc(N3CCN(c4cccc(Cl)c4)CC3)c12,inactive: 9.47%
26,CCOC(=O)N1CCc2c(sc3c2c(=O)n(-c2ccc(Cl)cc2)c(=O)n3Cc2cccc(OC)c2)C1,inactive: -1.86%
27,COCCCNC(=O)c1ccc(Cn2c(=O)c3ccccc3n(CC(=O)Nc3ccc(C)cc3C)c2=O)cc1,inactive: 6.89%

row,SMILES,activation
1,COc1ccc(-c2nc3nc(C)cc(N4CCN(c5cccc(C(F)(F)F)c5)CC4)n3n2)cc1,inactive: -2.74%
2,Cc1cc(C)cc(NC(=O)Cn2nnc(C(=O)NCc3ccccc3Cl)c2N)c1,inactive: 24.7%
3,COc1ccc(CCNC(=O)c2cc3c(s2)-c2c(C)cccc2OC3)c(OC)c1,inactive: -18.1%
4,CCOc1ccc(C(=O)Nc2ccccc2C(=O)OCc2cc(=O)n3nc(C4CC4)sc3n2)cc1,inactive: -5.93%
5,CC(C)c1cc(C(=O)NC(C)c2ccccc2)no1 (stereo not drawn),inactive: 17.4%
6,CCc1ccc(S(=O)(=O)c2nnn3c2nc(Nc2cc(OC)cc(OC)c2)c2cc(Cl)ccc23)cc1,inactive: 1.42%
7,Cc1ccc(-c2nc(S(=O)(=O)c3ccc(C)cc3)c(SCC(=O)Nc3ccc(F)cc3)o2)cc1,inactive: -8.53%
8,CCN(Cc1ccccc1)C(=O)c1cc2c(=O)oc3ccc(C)cc3c2s1,inactive: 20.8%
9,Cc1cccc2c1-c1sc(C(=O)NCc3ccc(Cl)cc3)cc1CO2,inactive: -1.57%
10,Cc1cccc(N2CC(c3nc4ccccc4n3CCC3CCCCC3)CC2=O)c1 (stereo not drawn),inactive: -2.59%
11,COc1ccc(NC(=O)C2CCN(c3nc4ccccc4nc3C(F)(F)F)CC2)cc1,inactive: 0.748%
12,Nc1cccc2c(N)cccc12,inactive: -23.8%
13,CCOc1ccccc1CNC(=O)c1cnc2c(-c3ccc(OCC)c(OCC)c3)c(C)nn2c1C,inactive: 38%
14,O=C(Cn1cc(SCc2ccccc2)c2ccccc21)N1CCCCCC1,inactive: -12.1%
15,COc1ccc(-c2cn3nc(N4CCC(C(=O)Nc5ccc(Cl)cc5C)CC4)sc3n2)cc1,inactive: 1.64%
16,Cc1oc(-c2ccc(C(=O)NCCc3ccc(Cl)cc3)cc2)nc1CSc1ccccc1,inactive: 20.1%
17,COc1ccc(-n2nc(C(=O)NCCc3ccc(OC)c(OC)c3)c3c4ccccc4n(C)c3c2=O)cc1Cl,inactive: -8.85%
18,COCCCNC(=O)c1c(NC(=O)c2cc(=O)c3ccccc3o2)sc2c1CCCC2,inactive: -3.92%
19,Cc1ccc(N2CCN(c3c(CN4CCCC4)c(=O)oc4ccccc34)CC2)c(C)c1,inactive: -13.5%
20,Cc1ccc(-c2nc(SCC(=O)N3CCc4ccccc43)c3c(=O)n(C)c(=O)n(C)c3n2)cc1,inactive: 6.76%
21,CCOC(=O)C1CCC(CN(Cc2c(Cl)cccc2Cl)S(=O)(=O)c2ccc(Cl)cc2)CC1 (stereo not drawn),inactive: -23.4%
22,CCn1ccc2cc(S(=O)(=O)N3CCC(C(=O)NCc4ccc(OC)cc4)CC3)ccc21,inactive: -6.7%
23,Cc1ccc2nc(-c3ccc(Cl)c(NC(=O)c4cccc([N+](=O)[O-])c4C)c3)oc2c1,inactive: -11.1%
24,Cc1ccccc1CN1C(=O)c2ccccc2Sc2ccc(C(=O)OCc3ccco3)cc21,inactive: -6.95%
25,Cc1ccc(S(=O)(=O)n2nc(C)c(S(=O)(=O)N3CCC(C)CC3)c2C)cc1,inactive: 11.8%
26,O=C(NCc1ccccc1)c1ccc2c(c1)N(Cc1cccc(Cl)c1)C(=O)c1ccccc1S2(=O)=O,inactive: -24.3%

# Reference: PubChem BioAssay AID1346428 (National Center for Advancing Translational Sciences (NCATS), 2018)
